The supplement of paper PMC4967469

How the values were obtained:
Assay in all cases: Viability of human cancer cell lines after 72 h of drug (GDSC screen)
[1] = compound: S=C(NCc1ccc2c(c1)OCO2)N1CCN(c2ncnc3c2oc2ccccc23)CC1 [MP470]; details: top dose 20 µM; top dose inferred
Protocol: (§1)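 Human cancer cell lines in 384-well plates, medium with 10% serum, drug for 72 h over a 256-fold dose range (nine 2-fold or five 4-fold steps up to the top dose). Adherent lines were fixed and stained with the nucleic acid dye Syto60, suspension lines read with resazurin; signal relative to control wells, capped at 0 and 100%. One two-parameter sigmoid per drug and line, fitted in a mixed model over all curves with the slope shared within a line.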

[2] = compound: CC(O)(CS(=O)(=O)c1ccc(F)cc1)C(=O)Nc1ccc(C#N)c(C(F)(F)F)c1 [Bicalutamide]; details: top dose inferred
Protocol: as §1

[3] = compound: O=S(=O)(c1ccccc1)N(CC(F)(F)F)c1ccc(C(O)(C(F)(F)F)C(F)(F)F)cc1 [T0901317]; details: top dose 10.24 µM; top dose inferred
Protocol: as §1

[4] = compound: CC(C)c1ccccc1Cc1cc(C(=O)Nc2ccc(S(=O)(=O)c3ccccc3C(C)(C)C)cc2)c(O)c(O)c1O [TW-37]; details: top dose 5 µM
Protocol: as §1

[5] = compound: Cc1ccc(Nc2cc(-c3cccc(N4C(=O)c5ccccc5C4=O)c3)ncn2)cc1NS(C)(=O)=O [KIN001-270]; details: top dose 20 µM; top dose inferred
Protocol: as §1

[6] = compound: Nc1ccn([C@@H]2O[C@H](CO)[C@@H](O)C2(F)F)c(=O)n1 [Gemcitabine]; details: top dose 1.024 µM
Protocol: as §1

[7] = compound: CCNC(=O)c1noc(-c2cc(C(C)C)c(O)cc2O)c1-c1ccc(CN2CCOCC2)cc1 [AUY922]; details: top dose 0.256 µM; top dose inferred
Protocol: as §1

[8] = compound: C/C(O)=C(\C#N)C(=O)Nc1cc(Br)ccc1Br [LFM-A13]; details: top dose 16 µM; top dose inferred
Protocol: as §1

[9] = top dose 10 µM, screen: GDSC drug entry 1502
[10] = top dose 1.024 µM, screen: GDSC drug entry 150

Cell Line: OV-17R (ovary, adherent)
- AUC [1]: 0.58
- IC50 [1]: 2.26 µM
- AUC [2, 9]: 0.973
- IC50 [2, 9]: > 10 µM
- AUC [3]: 0.975
- IC50 [3]: > 10.2 µM
- AUC [4]: 0.588
- IC50 [4]: 0.599 µM
- AUC [5]: 0.962
- IC50 [5]: > 20 µM

Cell Line: HCC-366 (non-small cell lung carcinoma, adherent)
- AUC [2, 9]: 0.987
- IC50 [2, 9]: > 10 µM
- AUC [4]: 0.748
- IC50 [4]: 1.67 µM

Cell Line: OVCA433 (ovary, adherent)
- AUC [1]: 0.969
- IC50 [1]: > 20 µM
- AUC [2, 9]: 0.983
- IC50 [2, 9]: > 10 µM
- AUC [3]: 0.984
- IC50 [3]: > 10.2 µM
- AUC [4]: 0.593
- IC50 [4]: 0.58 µM
- AUC [5]: 0.982
- IC50 [5]: > 20 µM

Cell Line: SNU-475 (liver, adherent)
- AUC [1]: 0.979
- IC50 [1]: > 20 µM
- AUC [2, 10]: 0.989
- IC50 [2, 10]: > 1.02 µM
- AUC [3]: 0.984
- IC50 [3]: > 10.2 µM
- AUC [6]: 0.947
- IC50 [6]: > 1.02 µM
- AUC [7]: 0.938
- IC50 [7]: > 0.256 µM
- AUC [5]: 0.985
- IC50 [5]: > 20 µM
- AUC [8]: 0.989
- IC50 [8]: > 16 µM

Cell Line: K-562 (chronic myeloid leukaemia, suspension)
- AUC [6]: 0.744
- IC50 [6]: 0.313 µM
- AUC [4]: 0.302
- IC50 [4]: 0.0885 µM
- AUC [5]: 0.96
- IC50 [5]: > 20 µM

Cell Line: MCF7 (breast, adherent)
- AUC [1]: 0.491
- IC50 [1]: 1.18 µM
- AUC [3]: 0.985
- IC50 [3]: > 10.2 µM
- AUC [4]: 0.536
- IC50 [4]: 0.392 µM
- AUC [7]: 0.314
- IC50 [7]: 0.00473 µM
- AUC [5]: 0.984
- IC50 [5]: > 20 µM
- AUC [8]: 0.949
- IC50 [8]: > 16 µM

Cell Line: JHOS-2 (ovary, adherent)
- AUC [1]: 0.925
- IC50 [1]: > 20 µM
- AUC [2, 9]: 0.98
- IC50 [2, 9]: > 10 µM
- AUC [3]: 0.952
- IC50 [3]: > 10.2 µM
- AUC [4]: 0.477
- IC50 [4]: 0.268 µM
- AUC [5]: 0.964
- IC50 [5]: > 20 µM

Cell Line: SW1271 (small cell lung carcinoma, adherent)
- AUC [1]: 0.94
- IC50 [1]: > 20 µM
- AUC [2, 10]: 0.983
- IC50 [2, 10]: > 1.02 µM
- AUC [2, 9]: 0.982
- IC50 [2, 9]: > 10 µM
- AUC [3]: 0.984
- IC50 [3]: > 10.2 µM
- AUC [6]: 0.325
- IC50 [6]: 0.0192 µM
- AUC [4]: 0.653
- IC50 [4]: 0.887 µM
- AUC [5]: 0.977
- IC50 [5]: > 20 µM
- AUC [8]: 0.958
- IC50 [8]: > 16 µM

Cell Line: KYSE-180 (oesophagus, adherent)
- AUC [1]: 0.976
- IC50 [1]: > 20 µM
- AUC [2, 10]: 0.987
- IC50 [2, 10]: > 1.02 µM
- AUC [2, 9]: 0.952
- IC50 [2, 9]: > 10 µM
- AUC [3]: 0.981
- IC50 [3]: > 10.2 µM
- AUC [6]: 0.295
- IC50 [6]: 0.0174 µM
- AUC [7]: 0.42
- IC50 [7]: 0.00976 µM
- AUC [5]: 0.98
- IC50 [5]: > 20 µM
- AUC [8]: 0.911
- IC50 [8]: > 16 µM

Cell Line: CHP-134 (neuroblastoma, suspension)
- AUC [1]: 0.789
- IC50 [1]: 11.6 µM
- AUC [3]: 0.975
- IC50 [3]: > 10.2 µM
- AUC [5]: 0.946
- IC50 [5]: > 20 µM

Cell Line: NCI-H838 (lung adenocarcinoma, adherent)
- AUC [1]: 0.267
- IC50 [1]: 0.262 µM
- AUC [2, 10]: 0.987
- IC50 [2, 10]: > 1.02 µM
- AUC [2, 9]: 0.984
- IC50 [2, 9]: > 10 µM
- AUC [3]: 0.975
- IC50 [3]: > 10.2 µM
- AUC [6]: 0.782
- IC50 [6]: 0.448 µM
- AUC [7]: 0.823
- IC50 [7]: 0.159 µM
- AUC [5]: 0.982
- IC50 [5]: > 20 µM
- AUC [8]: 0.968
- IC50 [8]: > 16 µM

Cell Line: H2810 (mesothelioma, adherent)
- AUC [4]: 0.625
- IC50 [4]: 0.72 µM

Cell Line: OV-7 (ovary, adherent)
- AUC [1]: 0.922
- IC50 [1]: > 20 µM
- AUC [2, 9]: 0.915
- IC50 [2, 9]: > 10 µM
- AUC [3]: 0.974
- IC50 [3]: > 10.2 µM
- AUC [4]: 0.643
- IC50 [4]: 0.956 µM
- AUC [5]: 0.879
- IC50 [5]: > 20 µM

Cell Line: U-2-OS (osteosarcoma, adherent)
- AUC [1]: 0.95
- IC50 [1]: > 20 µM
- AUC [2, 10]: 0.985
- IC50 [2, 10]: > 1.02 µM
- AUC [2, 9]: 0.982
- IC50 [2, 9]: > 10 µM
- AUC [4]: 0.568
- IC50 [4]: 0.489 µM
- AUC [7]: 0.616
- IC50 [7]: 0.0344 µM
- AUC [5]: 0.981
- IC50 [5]: > 20 µM
- AUC [8]: 0.963
- IC50 [8]: > 16 µM

Cell Line: HCT-116 (large intestine, adherent)
- AUC [1]: 0.954
- IC50 [1]: > 20 µM
- AUC [2, 10]: 0.986
- IC50 [2, 10]: > 1.02 µM
- AUC [2, 9]: 0.986
- IC50 [2, 9]: > 10 µM
- AUC [3]: 0.915
- IC50 [3]: > 10.2 µM
- AUC [4]: 0.32
- IC50 [4]: 0.101 µM
- AUC [7]: 0.808
- IC50 [7]: 0.124 µM
- AUC [5]: 0.951
- IC50 [5]: > 20 µM
- AUC [8]: 0.985
- IC50 [8]: > 16 µM

Cell Line: CHSA0011 (chondrosarcoma, adherent)
- AUC [1]: 0.97
- IC50 [1]: > 20 µM
- AUC [2, 10]: 0.98
- IC50 [2, 10]: > 1.02 µM
- AUC [2, 9]: 0.941
- IC50 [2, 9]: > 10 µM
- AUC [3]: 0.979
- IC50 [3]: > 10.2 µM
- AUC [6]: 0.978
- IC50 [6]: > 1.02 µM
- AUC [7]: 0.979
- IC50 [7]: > 0.256 µM
- AUC [5]: 0.976
- IC50 [5]: > 20 µM
- AUC [8]: 0.98
- IC50 [8]: > 16 µM

Cell Line: RCC-ER (kidney, adherent)
- AUC [1]: 0.971
- IC50 [1]: > 20 µM
- AUC [2, 9]: 0.984
- IC50 [2, 9]: > 10 µM
- AUC [3]: 0.986
- IC50 [3]: > 10.2 µM
- AUC [4]: 0.404
- IC50 [4]: 0.165 µM
- AUC [5]: 0.985
- IC50 [5]: > 20 µM

Cell Line: SW1116 (large intestine, adherent)
- AUC [1]: 0.985
- IC50 [1]: > 20 µM
- AUC [2, 9]: 0.967
- IC50 [2, 9]: > 10 µM
- AUC [3]: 0.986
- IC50 [3]: > 10.2 µM
- AUC [4]: 0.886
- IC50 [4]: > 5 µM
- AUC [5]: 0.976
- IC50 [5]: > 20 µM

Cell Line: EMC-BAC-2 (lung adenocarcinoma, adherent)
- AUC [1]: 0.948
- IC50 [1]: > 20 µM
- AUC [2, 9]: 0.949
- IC50 [2, 9]: > 10 µM
- AUC [3]: 0.979
- IC50 [3]: > 10.2 µM
- AUC [4]: 0.522
- IC50 [4]: 0.363 µM
- AUC [5]: 0.982
- IC50 [5]: > 20 µM

Cell Line: Caov-3 (ovary, adherent)
- AUC [1]: 0.937
- IC50 [1]: > 20 µM
- AUC [2, 10]: 0.991
- IC50 [2, 10]: > 1.02 µM
- AUC [3]: 0.989
- IC50 [3]: > 10.2 µM
- AUC [6]: 0.504
- IC50 [6]: 0.0654 µM
- AUC [7]: 0.742
- IC50 [7]: 0.0711 µM
- AUC [5]: 0.984
- IC50 [5]: > 20 µM
- AUC [8]: 0.991
- IC50 [8]: > 16 µM

Cell Line: BT-549 (breast, adherent)
- AUC [2, 9]: 0.942
- IC50 [2, 9]: > 10 µM
- AUC [4]: 0.63
- IC50 [4]: 0.821 µM

Cell Line: A549 (lung adenocarcinoma, adherent)
- AUC [2, 9]: 0.966
- IC50 [2, 9]: > 10 µM
- AUC [4]: 0.287
- IC50 [4]: 0.0719 µM

A lower IC50 marks a more sensitive line; a limit (>, <) means that the fit lies beyond the doses tested. AUC sums up the same curve from the lowest dose to the 256-fold higher top dose: 1 means no effect, lower means more sensitive. For some assays here: Any top dose called inferred was derived from the fitted curves, not read from the paper. For some assays here: Where an entry number is given, a second screen of the drug exists; the two often differ.
